This is an account of results in publication PMC5107933.

Protein sequences, listed by entry. Tags and fused reporters are not part of them. Residues count along the entry.
UniProt G1TJL6: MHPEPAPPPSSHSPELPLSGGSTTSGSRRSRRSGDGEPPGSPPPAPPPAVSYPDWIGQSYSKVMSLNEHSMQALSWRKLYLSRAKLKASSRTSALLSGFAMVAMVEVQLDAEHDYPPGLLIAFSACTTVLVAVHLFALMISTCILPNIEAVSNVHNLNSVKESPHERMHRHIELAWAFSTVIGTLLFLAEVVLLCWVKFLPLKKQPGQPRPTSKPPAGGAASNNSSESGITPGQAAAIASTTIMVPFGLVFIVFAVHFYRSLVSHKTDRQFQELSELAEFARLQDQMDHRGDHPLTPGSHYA
UniProt Q8BWG9: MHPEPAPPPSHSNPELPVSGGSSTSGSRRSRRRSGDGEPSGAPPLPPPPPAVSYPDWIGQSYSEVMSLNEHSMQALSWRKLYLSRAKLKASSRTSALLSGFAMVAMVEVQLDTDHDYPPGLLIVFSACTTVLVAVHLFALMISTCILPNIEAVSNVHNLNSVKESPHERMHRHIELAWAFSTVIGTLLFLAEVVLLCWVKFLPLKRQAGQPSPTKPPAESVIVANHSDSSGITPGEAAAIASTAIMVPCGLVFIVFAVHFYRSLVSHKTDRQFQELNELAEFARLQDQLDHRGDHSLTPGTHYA
UniProt P70302, residues 23-685: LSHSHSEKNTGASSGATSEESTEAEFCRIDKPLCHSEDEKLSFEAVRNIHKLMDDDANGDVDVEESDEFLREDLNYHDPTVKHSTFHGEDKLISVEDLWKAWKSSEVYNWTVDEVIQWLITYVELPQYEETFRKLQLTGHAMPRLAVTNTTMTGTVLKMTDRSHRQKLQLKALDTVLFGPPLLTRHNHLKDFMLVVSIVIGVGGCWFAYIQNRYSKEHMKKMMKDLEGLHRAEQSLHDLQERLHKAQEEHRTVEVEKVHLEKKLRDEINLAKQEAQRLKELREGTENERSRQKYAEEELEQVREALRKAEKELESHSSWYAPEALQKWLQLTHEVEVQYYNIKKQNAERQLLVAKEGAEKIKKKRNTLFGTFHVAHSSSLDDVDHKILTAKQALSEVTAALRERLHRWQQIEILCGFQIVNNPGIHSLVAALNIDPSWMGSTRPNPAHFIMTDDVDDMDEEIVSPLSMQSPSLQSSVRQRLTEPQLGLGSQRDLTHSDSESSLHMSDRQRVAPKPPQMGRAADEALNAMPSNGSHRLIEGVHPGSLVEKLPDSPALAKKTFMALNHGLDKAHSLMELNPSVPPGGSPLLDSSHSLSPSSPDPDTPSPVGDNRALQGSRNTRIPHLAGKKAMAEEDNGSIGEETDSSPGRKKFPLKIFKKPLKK

These are yes or no findings as the source states them, for the method shown. In cells and extracts the contact can be indirect. Some entries that bind do so weakly or less than the wild type. For some of these results: Sequences can lack the tags named with a protein.

For test [1], the target named is T1, GST-full-length MG53 (mouse) (UniProt Q1XH17).
T1 sequence: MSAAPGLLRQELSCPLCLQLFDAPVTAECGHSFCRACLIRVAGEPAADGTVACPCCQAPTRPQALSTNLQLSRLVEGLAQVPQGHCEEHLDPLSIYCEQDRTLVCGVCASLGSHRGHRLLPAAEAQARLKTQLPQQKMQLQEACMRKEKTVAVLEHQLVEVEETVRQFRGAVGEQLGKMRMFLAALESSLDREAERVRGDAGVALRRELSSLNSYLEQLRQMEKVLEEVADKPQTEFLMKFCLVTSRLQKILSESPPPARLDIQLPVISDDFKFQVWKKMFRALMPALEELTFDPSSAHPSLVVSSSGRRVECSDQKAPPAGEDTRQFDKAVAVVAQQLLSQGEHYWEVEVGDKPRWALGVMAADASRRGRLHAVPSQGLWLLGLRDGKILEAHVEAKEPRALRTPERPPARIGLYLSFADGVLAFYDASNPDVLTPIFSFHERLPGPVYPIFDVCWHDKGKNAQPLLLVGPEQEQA
Kind of test: pull-down; GST-fused MG53 proteins immobilized on GST beads, incubated with the triad vesicle sample from rabbit skeletal muscle; immunoblot with anti-Orai1 or anti-GST; only the target purified. On the technique in general: Immunoblotting shows a protein as a band on a membrane.

Test [2] has as its target T2, Mitsugumin 53 (MG53), endogenous in rabbit skeletal muscle triad vesicles (rabbit (endogenous in skeletal muscle triad vesicles)) (UniProt Q1XH18).
T2 sequence: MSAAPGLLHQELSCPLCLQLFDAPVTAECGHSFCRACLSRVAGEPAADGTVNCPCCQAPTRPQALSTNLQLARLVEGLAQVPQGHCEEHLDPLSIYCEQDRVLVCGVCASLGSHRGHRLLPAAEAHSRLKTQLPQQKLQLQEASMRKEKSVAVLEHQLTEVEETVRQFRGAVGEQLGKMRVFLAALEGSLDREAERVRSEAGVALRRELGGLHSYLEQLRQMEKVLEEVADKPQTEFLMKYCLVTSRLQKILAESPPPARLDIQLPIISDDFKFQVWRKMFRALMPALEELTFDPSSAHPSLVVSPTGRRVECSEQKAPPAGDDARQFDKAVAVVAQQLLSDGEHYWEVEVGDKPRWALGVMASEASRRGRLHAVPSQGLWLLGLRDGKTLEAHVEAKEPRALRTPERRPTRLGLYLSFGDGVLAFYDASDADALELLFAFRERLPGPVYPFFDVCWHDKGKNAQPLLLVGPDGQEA
Nature of the test: co-IP; solubilized triad vesicle sample from rabbit skeletal muscle (30 μg of total proteins); immunoprecipitation with anti-Orai1 or anti-MG53 antibody; immunoblot with various antibodies; reaction without antibody as negative control.

The target of a further test is T3, HA-MG53 (mitsugumin 53) (UniProt Q1XH17).
T3 sequence: T1 sequence
Kind of test: co-IP; HEK293 cells co-transfected with HA-MG53 and a myc-tagged protein; lysed with RIPA buffer (150 mM NaCl, 5 mM EDTA, 1% Nonidet P-40, 20 mM Tris-HCl, pH 7.5); 20 μg of total protein incubated with anti-HA antibody overnight; immunoblot with anti-HA or anti-myc.

As for “Orai1, endogenous in rabbit skeletal muscle triad vesicles (from UniProt G1TJL6 1-302)”, the binding entry in test [1] and in test [2] was “binds” in each case.
Turning to Orai1-myc (from UniProt Q8BWG9 1-304), the binding result with HA-MG53 (mitsugumin 53) is recorded as “binds”.
Same read-out and setting: next, STIM1-myc (from UniProt P70302 23-685): “no binding”.
